Results on 59 compounds are retold here after PubChem BioAssay AID1963576 (National Center for Advancing Translational Sciences (NCATS), 2024).

Molecules are shown by their SMILES. Hit rate of the full screen: of about 46,000 compounds, about 60 (0.1%) were called active. Roughly 3% stayed inconclusive and do not appear here. The call rests on the fitted dose curve; in most records, active means well fitted inhibition curve with a large enough effect; inconclusive means small, poorly fitted or top-dose-only effect; inactive means no such curve, though single readings can be large or run the other way. Some of the results follow.

The assay in a line: Primary qHTS assay for Inhibitors of ovarian cancer metastasis using an organotypic tumor microenvironment (TME) model. Further: nearly all actives have a fitted effect of over 65% in size.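 On activity change, negative = inhibition: plate controls were DMSO wells for no effect and tomatine positive control wells for full effect.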 Particulars: SKOV3ip1-GFP adhesion/invasion on 3D omental model, fluorescence; series mostly up to 45.8 µM; activity change, negative = inhibition: at the top concentration. The essentials:
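qHTS, 4-pt dose (0.36-46 umol/L); SKOV3ip1-GFP, 1,200 cells/well, no FBS; primary omental fibroblast/mesothelial co-culture 48 h pre-grown; 2 h RT + 16 h 37 C; PBS wash, 4% PFA; GFP count 488/509 nm.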
With `Cc1ccc2nc(-c3cccs3)c(Nc3c(C)cccc3C)n2c1`, the “activity change, negative = inhibition” value was inactive: -5.15%. Still for that read-out and setting: the result for `CC(C)CCNC(=O)CN1C(=O)CSc2ccc(S(=O)(=O)N3CCC(C)CC3)cc21` reads inactive: -7.79%. In the case of `Cc1ccccc1OCC(=O)Nc1ccc(-c2nc3ccccc3o2)cc1`, the outcome was inactive. Regarding `C=C1C(=CC=C2CCC[C@]3(C)[C@@H]([C@H](C)C=C[C@H](C)C(C)C)CC[C@@H]23)C[C@@H](O)C[C@@H]1O`, the “activity change, negative = inhibition” value was inactive: -20.6%.

Take `CCc1cccc(NC(=O)CCc2nc3cccnc3n2Cc2ccc(OC)cc2)c1`: the “activity change, negative = inhibition” value was inactive: 4.17%. On the same count and under the same terms, then `CCOC(=O)Cc1ccc(NC(=O)Nc2c[nH]c(=O)[nH]c2=O)cc1`, with inactive: -17.2%; and `Cn1c(=O)[nH]c(=O)c2c1nc(N1CCOCC1)n2Cc1ccccc1`, with inactive: -0.588%. As to `O=C(NCCS(=O)(=O)N1CCN(c2ccc(F)cc2)CC1)C(c1ccccc1)c1ccccc1`, the “activity change, negative = inhibition” value is inactive: -13.9%.

Consider `CC(=O)c1cccc(NC(=O)CSc2nnc3ccc(-c4ccc(Br)cc4)nn23)c1`, for which the “activity change, negative = inhibition” value is inactive: -1.23%.

`CCOC(=O)C(CC)n1nnc2sc(-c3ccccc3)cc2c1=O` (centres undefined): the “activity change, negative = inhibition” value is inactive: 1.27%. With `Cn1c2ccccc2c2cnn(CC(=O)NCCCN3CCCCC3)c(=O)c21`, the “activity change, negative = inhibition” value is inactive: 10.3%. With `CCOc1ccc(NC(=O)CSc2cn(CCNC(=O)c3ccccc3F)c3ccccc23)cc1`, the call was inactive.

For `COc1ccc(CN2C(=O)C(NC(=O)c3cccc(C)c3)(C(F)(F)F)N=C2c2ccccc2)cc1` (centres undefined), the result was inactive.

As for `CCc1ccccc1NC(=O)CSc1nncn2c1cc1oc(C)cc12`, the “activity change, negative = inhibition” value was inactive: 4.99%. On the same count and under the same terms, the result for `Fc1ccc(C(c2nnc(-c3ccccc3)o2)N2CCN(c3cccc(Cl)c3)CC2)cc1` (centres undefined) reads inactive: -0.209%; that for `Cc1ccc(NC(=O)Cn2c(=O)n(Cc3ccccc3)c(=O)c3sc4ccccc4c32)cc1`, inactive: -3.53%. On the same count and under the same terms, then `Cc1ccc(-n2c(=O)c3sc4ccccc4c3n(CC(=O)NC3CCCC3)c2=O)cc1C`, with inactive: -0.308%; and `Cc1ccc(CNC(=O)CSc2nc3c(sc4ccccc43)c(=O)n2CCCOC(C)C)cc1`, with inactive: -0.757%. Regarding `CC(C)Oc1ccccc1-c1nc(SCC(=O)c2ccc(F)cc2)n[nH]1`, the result was inactive. For `Cc1ccc2oc(=O)c3cnn(CC(=O)N4CCN(c5ccc(F)cc5)CC4)c3c2c1`, the “activity change, negative = inhibition” value was inactive: -0.176%. Turning to `Cc1ccc(Nc2c(-c3c[nH]c4ccccc34)nc3ccccn23)cc1`, the “activity change, negative = inhibition” value was inactive: 3.88%. Still for that read-out and setting: the result for `CCOc1ccc(CNC(=O)c2ccc3c(c2)c(C)c(C)n3Cc2ccccc2)cc1OC` reads inactive: -2.59%. In the case of `CCOc1ccc(NC(=O)c2c(Nc3ccccc3C)sc(C(=O)c3ccccc3)c2N)cc1`, the “activity change, negative = inhibition” value was inactive: -5.41%. On to `O=C(CN1C(=O)C2(SCC(=O)N2c2cccc(Cl)c2)c2ccccc21)NCCc1ccccc1` (centres undefined), for which the “activity change, negative = inhibition” value was inactive: 2.99%. Take `CCN(CC)S(=O)(=O)c1ccc(NC(=O)CN(c2ccccc2)S(=O)(=O)N(C)C)cc1`: the “activity change, negative = inhibition” value was inactive: 6.84%.

Consider `CCOc1ccc(NC(=O)C(Cc2ccccc2)NS(=O)(=O)c2ccc3c(c2)oc(=O)n3C)cc1` (centres undefined), for which the “activity change, negative = inhibition” value is inactive: -8.39%.

As to `COc1ccccc1C(=O)Nc1ccc2nc(SCC(=O)N(C)c3ccccc3)sc2c1`, the “activity change, negative = inhibition” value was inactive: 1.91%.

With `CCS(=O)(=O)c1ncc(N(Cc2ccccc2)Cc2ccco2)c(C(=O)Nc2cccc(Cl)c2C)n1`, the “activity change, negative = inhibition” value is inactive: -7.22%. On to `Cc1c(Cl)cccc1-c1ccc(CNCCSc2nnnn2-c2ccccc2)o1`, for which the “activity change, negative = inhibition” value is inactive: -25.1%. As for `Cc1ccc(C)c(Cn2c3ccccc3c3cnn(CC(=O)NC(C)CCc4ccccc4)c(=O)c32)c1` (centres undefined), the “activity change, negative = inhibition” value is inactive: -10.8%. Same read-out and setting: then `COc1ccc(CCNC(=O)c2ccc3c(c2)N(Cc2ccccc2)C(=O)c2ccccc2S3=O)cc1OC` (centres undefined), with inactive: -29.3%; and `Cc1ccc(-n2ncc(C(=O)N3CCN(c4cc(Cl)ccc4C)CC3)c2C2CCN(C(=O)OC(C)(C)C)CC2)cc1`, with inactive: 8.51%. On the same count and under the same terms, then `COc1cccc(NC(=O)CN2C(=O)c3cccc4cccc2c34)c1`, with inactive: -1.04%; and `Cc1cccc(CNC(=O)Cn2c(-c3cccs3)cc3ccccc32)c1`, with inactive: -12.7%; and `Cc1cccc(OCC(=O)Nc2ccccc2C(=O)OCc2cc(=O)n3ccsc3n2)c1`, with inactive: 0.238%. In the case of `COc1ccc(NC(=O)c2c(C)oc3ccc(O)c(CN4CCC(C)CC4)c23)cc1Cl`, the “activity change, negative = inhibition” value was inactive: -1.88%. As to `COc1ccc(CNc2ncnc3c2nc2n3CCCC2)cc1`, the “activity change, negative = inhibition” value is inactive: -8.78%. For `COc1ccc(CCn2c3c(c(=O)[nH]c2=O)C(NC(=O)c2ccc(Cl)cc2)(C(F)(F)F)C(=O)N3)cc1OC` (centres undefined), the “activity change, negative = inhibition” value is inactive: 10.4%. On the same count and under the same terms, then `COC(=O)CSc1ncc2c(n1)-c1ccccc1N(Cc1ccc(Cl)cc1)S2(=O)=O`, with inactive: 0.763%; and `CCCN(c1c(C)n(C)n(-c2ccccc2)c1=O)S(=O)(=O)c1ccc(C)cc1`, with inactive: 2.3%.

In the case of `CC1CCN(C(=O)CSc2n[nH]c(-c3ccc(F)cc3)n2)CC1`, the compound was called inactive.

For the compound `CCc1ccc(-n2nnc(-c3nc(-c4cccs4)no3)c2N)cc1`, the “activity change, negative = inhibition” value is inactive: -4.23%. Take `CC(C)OC(=O)c1ccc(Cn2nnc3sc4c(c3c2=O)CCCC4)cc1`: the “activity change, negative = inhibition” value is inactive: -0.841%.

As for `COc1ccc2c(c1)c1c(c(=O)n(-c3ccccc3C)c(=O)n1Cc1cccc(C(F)(F)F)c1)n2C`, the “activity change, negative = inhibition” value was inactive: 5.97%. Turning to `CCN(c1cccc(C)c1)S(=O)(=O)c1cc(Br)cc2c1N(C(C)=O)C(C)C2` (centres undefined), the “activity change, negative = inhibition” value was inactive: -0.615%.

In the case of `CC(NC(=O)c1ccc2c(c1)N(Cc1ccc(Cl)cc1)C(=O)CS2)c1ccccc1` (centres undefined), the “activity change, negative = inhibition” value is inactive: 37.7%. On the same count and under the same terms, the result for `Cc1cn2c(-c3cn[nH]c3)cnc2c(Nc2ccc(C(=O)N3CCNCC3)cc2F)n1` reads inactive: -11.9%. For the compound `CCC(=O)N1CCc2cc(CNS(=O)(=O)c3cc(OC)ccc3OC)ccc21`, the compound was classed as inactive. The same measure, in the same setting: then `CCOC(=O)c1cnc2cc(C(F)(F)F)ccc2c1Nc1ccc(F)cc1F`, with “inactive”.

On to `CC(=O)Nc1ccc(S(=O)(=O)NC2(C(F)(F)F)C(=O)Nc3c2c(=O)[nH]c(=O)n3-c2cccc(Cl)c2)cc1` (centres undefined), for which the “activity change, negative = inhibition” value is inactive: -0.591%. In the case of `Cc1ccc(S(=O)(=O)NCC2CCC(C(=O)NCCc3ccccc3)CC2)cc1` (centres undefined), the compound was classed as inactive. Take `CCc1nc2ccc(C(=O)N3CCN(c4cc(Cl)ccc4C)CC3)cc2nc1CC`: the “activity change, negative = inhibition” value is inactive: -8.04%.

In the case of `Cc1ccc(CSc2nc3cccnc3n2Cc2ccc(C(=O)NCc3ccco3)cc2)cc1`, the “activity change, negative = inhibition” value is inactive: -13.7%. The same measure, in the same setting: the result for `Oc1ccc(Cl)cc1C1=Nc2ccccc2N=C(c2ccccc2)C1` reads inactive: -6.58%; that for `Cc1cccc(-c2nc(CN3CCCC(C(=O)N4CCN(c5cc(Cl)ccc5C)CC4)C3)c(C)o2)c1` (centres undefined), inactive: -7.52%. With `O=C(c1ccc(F)cc1)c1cn(Cc2ccccc2F)c2cc3c(cc2c1=O)OCCO3`, the “activity change, negative = inhibition” value was inactive: -3.19%. Turning to `CSc1cccc(NC(=O)c2cnn(-c3ccc(F)cc3)c2-n2cccc2)c1`, the result was inactive.

In the case of `O=C(CSc1nc2c([nH]c3ccccc32)c(=O)n1-c1ccc(Cl)cc1)N1CCc2ccccc21`, the compound was called inactive. For the compound `Cc1ccc(-c2nc3c(c(SCc4ccc(Br)cc4)n2)Cc2c(CO)cnc(C)c2O3)cc1`, the “activity change, negative = inhibition” value was inactive: -23.1%.
